Sequences with one replicate were seen in a single cluster, so their values are uncertain.
system: ATP; assay: switch fluorescence ratio, 500 uM ATP over buffer (Cy3 cluster intensity, sum of 5 cycles each) (fold (ratio)); higher = stronger signal-on switching upon ATP binding; sequences stand for … in TCGTCGGCAGCGTCAGATGTGTATAAGAGACAGTTTTTTTTTTTTTTTTTTTTTTTTT…TC; settings: aptamer strand: ATP DNA aptamer (quencher-CACCTGGGGGAGTATTGCGGAGGAAGG + anchor), 100 nM annealed; ATP concentration: 500 uM; one replicate
Outline: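 Cy3-labelled switching-strand clusters on a modified Illumina MiSeq flow-cell were annealed to 100 nM quencher-labelled ATP aptamer and imaged first in selection buffer, then after 15 min with 500 uM ATP at 22 °C. NaOH stripping and re-annealing separated each of five buffer/ATP cycles, and clusters outside 100-1000 RFU were excluded. The fluorescence ratio sums target-cycle Cy3 intensity over buffer-cycle Cy3 intensity per cluster and averages it per switch-domain sequence.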
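Further: ATP exposure 15 min at 22 °C before imaging.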

Sequence	switch fluorescence ratio
ACTTCAGAGG	1.04
ACTTCAGGCC	1.01
ACTTCCTTCG	5.24
ACTTCGGCTG	1.05
ACTTCGTGCG	1.05
ACTTCTATTC	1.03
ACTTCTGCAA	0.781
ACTTGCTTCC	2.23
ACTTGGGACG	1.01
ACTTGGGCTC	0.984
ACTTGGGGTT	1.02
ACTTGTACTG	1.13
ACTTTAACGA	1.13
ACTTTAGACA	1.03
ACTTTAGTGA	0.907
ACTTTGGCCA	1.06
ACTTTGGG	0.999
ACTTTGTGCG	1.06
ACTTTTATCG	1
ACTTTTCTCA	1.01
ACTTTTGAGC	1.23
AGAAAAAACC	1.08
AGAAAAACAC	1.04
AGAAAAGTGA	0.962
AGAAAATATC	1.02

Sequence	switch fluorescence ratio
AGAAAATGTC	0.987
AGAAACATCG	0.994
AGAAACCGGC	0.974
AGAAACGGGC	0.828
AGAAATAGTA	0.984
AGAAATCCAG	1.02
AGAAATGCTT	0.964
AGAACACTCA	1.15
AGAACCATA	1
AGAACCGGGA	1.02
AGAACCTTGG	1.02
AGAACGTACA	1.68
AGAACTGTAC	1.61
AGAACTTAGT	0.982
AGAAGAAAAG	0.987
AGAAGACCTC	1.08
AGAAGCATGA	1.03
AGAAGCATTA	1.06
AGAAGCCTGT	0.965
AGAAGGAAAC	1.03
AGAAGGACGT	1.01
AGAAGGAGGC	1.02
AGAAGGCGCA	0.996
AGAAGTGAAA	0.979
AGAAGTGGTT	0.988

Sequence	switch fluorescence ratio
AGAAGTTATG	0.979
AGAAGTTCAA	1.02
AGAATCGTAA	1.03
AGAATCTGTG	0.999
AGAATGATA	1.05
AGAATGCAGG	0.953
AGAATGGCCT	0.999
AGAATGTCGT	1
AGAATTAGAT	1
AGAATTAGC	1
AGAATTAGGT	0.945
AGAATTATAA	1
AGAATTCTTG	1
AGAATTGTAG	0.981
AGACAAGGAG	0.929
AGACAATCGC	1.07
AGACAATCT	1.02
AGACAGACCT	1.51
AGACAGCGAC	1.09
AGACAGGGTT	1.05
AGACATTCTC	1.07
AGACCAAGAA	1.01
AGACCAGGCA	1.02
AGACCCCTAA	1.05
AGACCTTAAG	0.958

Sequence	switch fluorescence ratio
AGACGAGCGA	1.13
AGACGAGTTG	0.988
AGACGATCGG	1.03
AGACGCTTAT	1.18
AGACGGATGA	1
AGACGGGCCT	1.06
AGACGGTCTA	1.02
AGACTCTGCG	1.01
AGACTGAAAC	1.05
AGACTGCATC	1.05
AGACTGCTG	1.04
AGACTGGTGC	1.1
AGAGAAGGTT	0.995
AGAGACACAG	1.05
AGAGACTAAC	1.02
AGAGACTATC	0.997
AGAGAGCGGC	1.32
AGAGAGGTAG	0.922
AGAGCACGCG	1.02
AGAGCAGCCT	1.05
AGAGCATCAC	1.11
AGAGCCCGCA	1.07
AGAGCGATTC	1.42
AGAGCGTAAA	1.01
AGAGCTAAAC	1.14
